Patent publication US20200299342A1 (published 2020)
Where a chain is given by its changes, count along the chain named.

Legend:
Skp1-F-box^Fbw7 complex [1] = molecular target: T1, Skp1-F-box^Fbw7 complex (UniProt P63208 1-163); assay: competitive ELISA
Fbw7 L288A = assay: ELISA
Skp1 M30A = assay: ELISA
Skp1 P46A = assay: ELISA
Skp1 L116A = assay: ELISA
Fbw7 Y291R = assay: ELISA
Skp1 P48A = assay: ELISA
Skp1 D111R = assay: ELISA
Skp1 M36A = assay: ELISA
Fbw7 E287L = assay: ELISA
Skp1 Y109A = assay: ELISA
Skp1-F-box^Fbw7 complex [2] = molecular target: T1, Skp1-F-box^Fbw7 complex; assay: competitive ELISA; WB
Skp1 N108A = assay: ELISA
Skp1-F-box^Fbw7 complex [3] = molecular target: T1, Skp1-F-box^Fbw7 complex; assay: SPR
Skp1-F-box^Fbw2 complex = Skp1-F-box^Fbw2 complex (UniProt P63208 1-163); assay: competitive ELISA

B1: Ubv.Fw7.13 (designed binder)
chain: MAHHHHHHVTSLYKKAGDYKDDDDKMQIFVKTGSRTGITLEVEPSDTIENVKAKIQDKGGIPPDQQILLFSRKRLEDGRTLSDYNIQKESTLRLVLIFSGA
Skp1-F-box^Fbw7 complex [1]
  IC50: 170 nM

B2: Ubv.Fw7.7 (designed binder)
chain: MAHHHHHHVTSLYKKAGDYKDDDDKMQIFVKTGARTGITLEVEPSDTIENVKAKIQDKEGIPPDQQRLIFAGRRLEDGRTLSDYNIQKESTLRLVYVFRRG
Skp1-F-box^Fbw7 complex [1]
  IC50: 110 nM

B3: Ubv.Fw7.1 (designed binder)
chain: MAHHHHHHVTSLYKKAGDYKDDDDKMQIFVKTGARTAITLEVEPSDTIENVKAKIQDKEGIPPDQQILIFSRKLLEDGRTLSDYNIHRESTLRLVLIFRGNES
Fbw7 L288A
  EC50: 110 nM
Skp1 M30A
  EC50: 3 nM
Skp1 P46A
  EC50: 12 nM
Skp1 L116A
  EC50: 19 nM
Fbw7 Y291R
  EC50: 35 nM
Skp1 P48A
  EC50: 1.1 nM
Skp1 D111R
  EC50: 670 nM
Skp1 M36A
  EC50: 13 nM
Fbw7 E287L
  EC50: 1.7 nM
Skp1 Y109A
  EC50: 13 nM
Skp1-F-box^Fbw7 complex [2]
  IC50: > 5000 nM

B4: Cul1 NTD (other)
chain: MGSSHHHHHHSSGRENLYFQGHMDYKDDDDKMSSTRSQNPHGLKQIGLDQIWDDLRAGIQQVYTRQSMAKSRYMELYTHVYNYCTSVHQSNQARGAGVPPSKSKKGQTPGGAQFVGLELYKRLKEFLKNYLTNLLKDGEDLMDESVLKFYTQQWEDYRFSSKVLNGICAYLNRHWVRRECDEGRKGIYEIYSLALVTWRDCLFRPLNKQVTNAVLKLIEKERNGETINTRLISGVVQSYVELGLNEDDAFAKGPTLTVYKESFESQFLADTERFYTRESTEFLQQNPVTEYMKKAEARLLEEQRRVQVYLHESTQDELARKCEQVLIEKHLEIFHTEFQNLLDADKNEDLGRMYNLVSRIQDGLGELKKLLETHIHNQGLAAIEKCGEAALNDPKMYDQTVEDVHKKYNALVMSAFNNDAGFVAALDKACGRFINNNAVTK
Fbw7 L288A
  EC50: 8 nM
Skp1 M30A
  EC50: 9 nM
Skp1 P46A
  EC50: 13 nM
Skp1 L116A
  EC50: 7 nM
Fbw7 Y291R
  EC50: 16 nM
Skp1 N108A
  EC50: 16 nM
Skp1 P48A
  EC50: 18 nM
Skp1 M36A
  EC50: 11 nM
Fbw7 E287L
  EC50: 18 nM

B5: Ubv.Fw7.10 (designed binder)
chain: B2 chain with A34T, R67V, I69L, A71S, G72R, R73K, R74V, Y96W, V97L, F98L
Skp1-F-box^Fbw7 complex [1]
  IC50: 120 nM

B6: Ubv.Fw7.9 (designed binder)
chain: B2 chain with R67I, A71S, G72R, R73K, Y96M, R99S, R100K
Skp1-F-box^Fbw7 complex [1]
  IC50: 110 nM

B7: Ubv.Fw7.15 (designed binder)
chain: B1 chain with S34A, G59E, L69I, R72H, K73M, A101G
Skp1-F-box^Fbw7 complex [1]
  IC50: 180 nM

B8: Ubv.Fw7.18 (designed binder)
chain: B2 chain with G37A, A71S, G72R, R73K, Y96L, V97L, R99P, R100G
Skp1-F-box^Fbw7 complex [1]
  IC50: 310 nM

B9: Cul1 N-terminal domain (NTD) (other)
chain: B4 chain
Skp1-F-box^Fbw7 complex [3]
  Kd: 0.0044 nM

B10: Ubv.Fw7.6 (designed binder)
chain: B1 chain with S34A, G59E, L69I, S99P, G100S, A101G
Skp1-F-box^Fbw7 complex [1]
  IC50: 80 nM

B11: Ubv.Fw7.5 (designed binder)
chain: B2 chain with R67V, A71S, G72R, R73K, Y96L, R99G, G101R
Skp1-F-box^Fbw2 complex
  IC50: 760 nM

B12: Ubv.Fw7.11 (designed binder)
chain: B2 chain with G37A, E59G, R67V, A71S, G72K, R73K, Y96L, V97I
Skp1-F-box^Fbw7 complex [1]
  IC50: 130 nM

B13: Ubv.Fw7.14 (designed binder)
chain: MAHHHHHHVTSLYKKAGDYKDDDDKMQIFVKTGARTAITLEVEPSDTIENVKAKIQDKDGIPPDQQVLLFRRKKLEDGRTLSDYNIQKESTLRLLWIVRRG
Skp1-F-box^Fbw7 complex [1]
  IC50: 170 nM

B14: Ubv.Fw7.17 (designed binder)
chain: B2 chain with E59G, R73K, T91S, Y96L, V97I, R100G
Skp1-F-box^Fbw7 complex [1]
  IC50: 210 nM

B15: Ubv.Fw7.16 (designed binder)
chain: B1 chain with S34A, R74P, L96V, I97V, S99R, G100R, A101G
Skp1-F-box^Fbw7 complex [1]
  IC50: 210 nM
